Reference: the supplement of paper PMC11876631
± gives the standard deviation of the averaged measurements. Laboratory Escherichia coli strains with one amino-acid change in an essential protein, pooled on minimal glucose agar with carbenicillin or gentamicin at twice the control MIC (plus kanamycin and chloramphenicol for the plasmids), 48 h. Fold change of barcode share against drug-free plates; higher = less susceptible. Active = above 20 in both replicates (the paper's putatively resistant). '<' = one read or none on drug, '>' = one read or none on a drug-free plate. Shares are relative, so most strains fall below 1 when a few take over. Listed are strains with at least 15 reads on both drug-free plates, and hits; most hits rest on fewer reference reads. Replicate rank correlation about 0.5. Edits are read from barcodes.

B1: aroB V40P (protein)
chain: MERIVVTLGERSYPITIASGLFNEPASFLPLKSGEQVMLPTNETLAPLYLDKVRGVLEQAGVNVDSVILPDGEQYKSLAVLDTVFTALLQKPHGRDTTLVALGGGVVGDLTGFAAASYQRGVRFIQVPTTLLSQVDSSVGGKTAVNHPLGKNMIGAFYQPASVVVDLDCLKTLPPRELASGLAEVIKYGIILDGAFFNWLEENLDALLRLDGPAMAYCIRRCCELKAEVVAADERETGLRALLNLGHTFGHAIEAEMGYGNWLHGEAVAAGMVMAARTSERLGQFSSAETQRIITLLKRAGLPVNGPREMSAQAYLPHMLRDKKVLAGEMRLILPLAIGKSEVRSGVSHELVLNAIADCQSA
B2: aroB V273A (protein)
chain: MERIVVTLGERSYPITIASGLFNEPASFLPLKSGEQVMLVTNETLAPLYLDKVRGVLEQAGVNVDSVILPDGEQYKSLAVLDTVFTALLQKPHGRDTTLVALGGGVVGDLTGFAAASYQRGVRFIQVPTTLLSQVDSSVGGKTAVNHPLGKNMIGAFYQPASVVVDLDCLKTLPPRELASGLAEVIKYGIILDGAFFNWLEENLDALLRLDGPAMAYCIRRCCELKAEVVAADERETGLRALLNLGHTFGHAIEAEMGYGNWLHGEAVAAGMAMAARTSERLGQFSSAETQRIITLLKRAGLPVNGPREMSAQAYLPHMLRDKKVLAGEMRLILPLAIGKSEVRSGVSHELVLNAIADCQSA
B3: lipA I22Q (protein)
chain: MSKPIVMERGVKYRDADKMALQPVKNVATEREALLRKPEWMKIKLPADSTRIQGIKAAMRKNGLHSVCEEASCPNLAECFNHGTATFMILGAICTRRCPFCDVAHGRPVAPDANEPVKLAQTIADMALRYVVITSVDRDDLRDGGAQHFADCITAIREKSPQIKIETLVPDFRGRMDRALDILTATPPDVFNHNLENVPRIYRQVRPGADYNWSLKLLERFKEAHPEIPTKSGLMVGLGETNEEIIEVMRDLRRHGVTMLTLGQYLQPSRHHLPVQRYVSPDEFDEMKAEALAMGFTHAACGPFVRSSYHADLQAKGMEVK
B4: lipA M235A (protein)
chain: MSKPIVMERGVKYRDADKMALIPVKNVATEREALLRKPEWMKIKLPADSTRIQGIKAAMRKNGLHSVCEEASCPNLAECFNHGTATFMILGAICTRRCPFCDVAHGRPVAPDANEPVKLAQTIADMALRYVVITSVDRDDLRDGGAQHFADCITAIREKSPQIKIETLVPDFRGRMDRALDILTATPPDVFNHNLENVPRIYRQVRPGADYNWSLKLLERFKEAHPEIPTKSGLAVGLGETNEEIIEVMRDLRRHGVTMLTLGQYLQPSRHHLPVQRYVSPDEFDEMKAEALAMGFTHAACGPFVRSSYHADLQAKGMEVK
B5: lipA I22P (protein)
chain: MSKPIVMERGVKYRDADKMALPPVKNVATEREALLRKPEWMKIKLPADSTRIQGIKAAMRKNGLHSVCEEASCPNLAECFNHGTATFMILGAICTRRCPFCDVAHGRPVAPDANEPVKLAQTIADMALRYVVITSVDRDDLRDGGAQHFADCITAIREKSPQIKIETLVPDFRGRMDRALDILTATPPDVFNHNLENVPRIYRQVRPGADYNWSLKLLERFKEAHPEIPTKSGLMVGLGETNEEIIEVMRDLRRHGVTMLTLGQYLQPSRHHLPVQRYVSPDEFDEMKAEALAMGFTHAACGPFVRSSYHADLQAKGMEVK
B6: lipA V132Q (protein)
chain: MSKPIVMERGVKYRDADKMALIPVKNVATEREALLRKPEWMKIKLPADSTRIQGIKAAMRKNGLHSVCEEASCPNLAECFNHGTATFMILGAICTRRCPFCDVAHGRPVAPDANEPVKLAQTIADMALRYVQITSVDRDDLRDGGAQHFADCITAIREKSPQIKIETLVPDFRGRMDRALDILTATPPDVFNHNLENVPRIYRQVRPGADYNWSLKLLERFKEAHPEIPTKSGLMVGLGETNEEIIEVMRDLRRHGVTMLTLGQYLQPSRHHLPVQRYVSPDEFDEMKAEALAMGFTHAACGPFVRSSYHADLQAKGMEVK
B7: lipA L76A (protein)
chain: MSKPIVMERGVKYRDADKMALIPVKNVATEREALLRKPEWMKIKLPADSTRIQGIKAAMRKNGLHSVCEEASCPNAAECFNHGTATFMILGAICTRRCPFCDVAHGRPVAPDANEPVKLAQTIADMALRYVVITSVDRDDLRDGGAQHFADCITAIREKSPQIKIETLVPDFRGRMDRALDILTATPPDVFNHNLENVPRIYRQVRPGADYNWSLKLLERFKEAHPEIPTKSGLMVGLGETNEEIIEVMRDLRRHGVTMLTLGQYLQPSRHHLPVQRYVSPDEFDEMKAEALAMGFTHAACGPFVRSSYHADLQAKGMEVK
B8: lipA V132A (protein)
chain: MSKPIVMERGVKYRDADKMALIPVKNVATEREALLRKPEWMKIKLPADSTRIQGIKAAMRKNGLHSVCEEASCPNLAECFNHGTATFMILGAICTRRCPFCDVAHGRPVAPDANEPVKLAQTIADMALRYVAITSVDRDDLRDGGAQHFADCITAIREKSPQIKIETLVPDFRGRMDRALDILTATPPDVFNHNLENVPRIYRQVRPGADYNWSLKLLERFKEAHPEIPTKSGLMVGLGETNEEIIEVMRDLRRHGVTMLTLGQYLQPSRHHLPVQRYVSPDEFDEMKAEALAMGFTHAACGPFVRSSYHADLQAKGMEVK
B9: lipA I153Q (protein)
chain: MSKPIVMERGVKYRDADKMALIPVKNVATEREALLRKPEWMKIKLPADSTRIQGIKAAMRKNGLHSVCEEASCPNLAECFNHGTATFMILGAICTRRCPFCDVAHGRPVAPDANEPVKLAQTIADMALRYVVITSVDRDDLRDGGAQHFADCQTAIREKSPQIKIETLVPDFRGRMDRALDILTATPPDVFNHNLENVPRIYRQVRPGADYNWSLKLLERFKEAHPEIPTKSGLMVGLGETNEEIIEVMRDLRRHGVTMLTLGQYLQPSRHHLPVQRYVSPDEFDEMKAEALAMGFTHAACGPFVRSSYHADLQAKGMEVK
B10: lipA L76W (protein)
chain: MSKPIVMERGVKYRDADKMALIPVKNVATEREALLRKPEWMKIKLPADSTRIQGIKAAMRKNGLHSVCEEASCPNWAECFNHGTATFMILGAICTRRCPFCDVAHGRPVAPDANEPVKLAQTIADMALRYVVITSVDRDDLRDGGAQHFADCITAIREKSPQIKIETLVPDFRGRMDRALDILTATPPDVFNHNLENVPRIYRQVRPGADYNWSLKLLERFKEAHPEIPTKSGLMVGLGETNEEIIEVMRDLRRHGVTMLTLGQYLQPSRHHLPVQRYVSPDEFDEMKAEALAMGFTHAACGPFVRSSYHADLQAKGMEVK
B11: lipA I153A (protein)
chain: MSKPIVMERGVKYRDADKMALIPVKNVATEREALLRKPEWMKIKLPADSTRIQGIKAAMRKNGLHSVCEEASCPNLAECFNHGTATFMILGAICTRRCPFCDVAHGRPVAPDANEPVKLAQTIADMALRYVVITSVDRDDLRDGGAQHFADCATAIREKSPQIKIETLVPDFRGRMDRALDILTATPPDVFNHNLENVPRIYRQVRPGADYNWSLKLLERFKEAHPEIPTKSGLMVGLGETNEEIIEVMRDLRRHGVTMLTLGQYLQPSRHHLPVQRYVSPDEFDEMKAEALAMGFTHAACGPFVRSSYHADLQAKGMEVK
B12: lipA I22D (protein)
chain: MSKPIVMERGVKYRDADKMALDPVKNVATEREALLRKPEWMKIKLPADSTRIQGIKAAMRKNGLHSVCEEASCPNLAECFNHGTATFMILGAICTRRCPFCDVAHGRPVAPDANEPVKLAQTIADMALRYVVITSVDRDDLRDGGAQHFADCITAIREKSPQIKIETLVPDFRGRMDRALDILTATPPDVFNHNLENVPRIYRQVRPGADYNWSLKLLERFKEAHPEIPTKSGLMVGLGETNEEIIEVMRDLRRHGVTMLTLGQYLQPSRHHLPVQRYVSPDEFDEMKAEALAMGFTHAACGPFVRSSYHADLQAKGMEVK
B13: lipA L76Q (protein)
chain: MSKPIVMERGVKYRDADKMALIPVKNVATEREALLRKPEWMKIKLPADSTRIQGIKAAMRKNGLHSVCEEASCPNQAECFNHGTATFMILGAICTRRCPFCDVAHGRPVAPDANEPVKLAQTIADMALRYVVITSVDRDDLRDGGAQHFADCITAIREKSPQIKIETLVPDFRGRMDRALDILTATPPDVFNHNLENVPRIYRQVRPGADYNWSLKLLERFKEAHPEIPTKSGLMVGLGETNEEIIEVMRDLRRHGVTMLTLGQYLQPSRHHLPVQRYVSPDEFDEMKAEALAMGFTHAACGPFVRSSYHADLQAKGMEVK
B14: lipA V132D (protein)
chain: MSKPIVMERGVKYRDADKMALIPVKNVATEREALLRKPEWMKIKLPADSTRIQGIKAAMRKNGLHSVCEEASCPNLAECFNHGTATFMILGAICTRRCPFCDVAHGRPVAPDANEPVKLAQTIADMALRYVDITSVDRDDLRDGGAQHFADCITAIREKSPQIKIETLVPDFRGRMDRALDILTATPPDVFNHNLENVPRIYRQVRPGADYNWSLKLLERFKEAHPEIPTKSGLMVGLGETNEEIIEVMRDLRRHGVTMLTLGQYLQPSRHHLPVQRYVSPDEFDEMKAEALAMGFTHAACGPFVRSSYHADLQAKGMEVK

target: Escherichia coli (laboratory strain); test: barcode share on antibiotic plates over drug-free plates; higher = less susceptible; settings: antibiotic: carbenicillin; 2× MIC (3.1 µg/mL)
Experimental: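 A pool of E. coli strains, each edited to carry one amino-acid change in an essential protein, was grown for 48 h on minimal glucose agar with or without antibiotic; strain barcodes were sequenced; mean of two replicates.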

Protein	fold change of barcode share
B1	> 22.9 [active]
B2	0.336 ± 0.13
B3	0.982 ± 0.011
B4	0.325 ± 0.12
B5	1.47 ± 1.2
B6	0.256 ± 0.084
B7	0.413 ± 0.15
B8	0.306 ± 0.072
B9	0.265 ± 0.15
B10	0.227 ± 0.031
B11	0.442 ± 0.29
B12	2.12 ± 1.2
B13	0.292 ± 0.027
B14	2.32 ± 0.041

same assay, conditions: antibiotic: gentamicin; 2× MIC (MIC 0.45 µg/mL)

Protein	fold change of barcode share
B2	0.00459 ± 0.004
B3	70 [active]
B4	0.0416 ± 0.0059
B5	55.2 [active]
B6	0.0382 ± 0.024
B7	0.00555 ± 0.0057
B10	0.00297 ± 0.0026
B12	153 [active]
B13	0.0473 ± 0.063
